Test [1] concerns the target T1, GST-RRM domain of Star-PAP (human) (UniProt Q9H6E5).
T1 sequence: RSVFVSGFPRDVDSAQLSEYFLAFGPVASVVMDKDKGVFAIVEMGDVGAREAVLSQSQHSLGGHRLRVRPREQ
As to the kind of experiment: pull-down; GST-Star-PAP (FL, ZF, RRM, ZF-RRM) immobilised on glutathione-Sepharose beads from E. coli lysates, washed, incubated with E. coli extract with overexpressed His-PIPKIα; TEN 100 buffer (20 mM Tris pH 7.5, 0.1 mM EDTA, 100 mM NaCl), with DNaseI and RNaseA; only the target purified.

Sequences of proteins named here, by UniProt entry; tags and fusion partners are left off.
UniProt Q99755: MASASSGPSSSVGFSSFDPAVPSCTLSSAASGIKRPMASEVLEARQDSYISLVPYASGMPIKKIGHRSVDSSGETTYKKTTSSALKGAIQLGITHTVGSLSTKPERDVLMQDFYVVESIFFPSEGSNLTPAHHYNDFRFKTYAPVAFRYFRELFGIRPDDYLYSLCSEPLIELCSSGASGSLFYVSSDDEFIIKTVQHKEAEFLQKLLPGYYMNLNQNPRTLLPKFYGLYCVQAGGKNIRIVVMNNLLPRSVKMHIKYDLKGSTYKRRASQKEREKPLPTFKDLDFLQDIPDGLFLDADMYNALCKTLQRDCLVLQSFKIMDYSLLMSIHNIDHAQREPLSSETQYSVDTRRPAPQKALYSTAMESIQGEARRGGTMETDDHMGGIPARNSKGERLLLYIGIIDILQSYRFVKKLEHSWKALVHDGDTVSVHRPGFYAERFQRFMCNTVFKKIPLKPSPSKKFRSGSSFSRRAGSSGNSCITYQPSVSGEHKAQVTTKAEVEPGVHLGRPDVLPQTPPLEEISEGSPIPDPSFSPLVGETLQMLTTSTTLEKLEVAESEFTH

Test [2] concerns the target T2, GST-Star-PAP (FL) (human) (UniProt Q9H6E5).
T2 sequence: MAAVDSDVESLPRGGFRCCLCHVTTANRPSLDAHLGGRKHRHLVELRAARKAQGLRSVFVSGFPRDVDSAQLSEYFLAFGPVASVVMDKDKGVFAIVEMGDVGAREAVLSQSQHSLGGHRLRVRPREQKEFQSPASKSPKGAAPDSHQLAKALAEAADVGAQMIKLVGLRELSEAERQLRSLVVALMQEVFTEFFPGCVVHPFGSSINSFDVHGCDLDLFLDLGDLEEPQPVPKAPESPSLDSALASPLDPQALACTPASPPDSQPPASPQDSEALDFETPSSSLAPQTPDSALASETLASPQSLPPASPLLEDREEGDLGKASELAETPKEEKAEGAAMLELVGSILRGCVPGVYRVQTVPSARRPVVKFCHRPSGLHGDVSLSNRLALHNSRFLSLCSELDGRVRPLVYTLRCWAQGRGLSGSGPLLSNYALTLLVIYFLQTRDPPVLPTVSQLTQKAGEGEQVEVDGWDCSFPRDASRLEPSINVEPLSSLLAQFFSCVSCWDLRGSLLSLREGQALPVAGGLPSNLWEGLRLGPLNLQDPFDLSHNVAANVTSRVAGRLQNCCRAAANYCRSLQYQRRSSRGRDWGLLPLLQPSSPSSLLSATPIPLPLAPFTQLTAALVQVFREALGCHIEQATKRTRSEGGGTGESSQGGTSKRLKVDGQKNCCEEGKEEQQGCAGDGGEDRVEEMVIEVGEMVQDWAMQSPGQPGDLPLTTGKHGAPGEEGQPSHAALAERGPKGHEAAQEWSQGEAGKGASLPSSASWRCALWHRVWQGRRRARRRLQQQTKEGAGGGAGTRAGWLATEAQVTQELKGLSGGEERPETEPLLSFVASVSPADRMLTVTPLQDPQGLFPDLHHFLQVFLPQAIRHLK
The description is as above.

The target of test [3] is T3, FLAG-Star-PAP^S6E (human) (UniProt Q9H6E5).
T3 sequence: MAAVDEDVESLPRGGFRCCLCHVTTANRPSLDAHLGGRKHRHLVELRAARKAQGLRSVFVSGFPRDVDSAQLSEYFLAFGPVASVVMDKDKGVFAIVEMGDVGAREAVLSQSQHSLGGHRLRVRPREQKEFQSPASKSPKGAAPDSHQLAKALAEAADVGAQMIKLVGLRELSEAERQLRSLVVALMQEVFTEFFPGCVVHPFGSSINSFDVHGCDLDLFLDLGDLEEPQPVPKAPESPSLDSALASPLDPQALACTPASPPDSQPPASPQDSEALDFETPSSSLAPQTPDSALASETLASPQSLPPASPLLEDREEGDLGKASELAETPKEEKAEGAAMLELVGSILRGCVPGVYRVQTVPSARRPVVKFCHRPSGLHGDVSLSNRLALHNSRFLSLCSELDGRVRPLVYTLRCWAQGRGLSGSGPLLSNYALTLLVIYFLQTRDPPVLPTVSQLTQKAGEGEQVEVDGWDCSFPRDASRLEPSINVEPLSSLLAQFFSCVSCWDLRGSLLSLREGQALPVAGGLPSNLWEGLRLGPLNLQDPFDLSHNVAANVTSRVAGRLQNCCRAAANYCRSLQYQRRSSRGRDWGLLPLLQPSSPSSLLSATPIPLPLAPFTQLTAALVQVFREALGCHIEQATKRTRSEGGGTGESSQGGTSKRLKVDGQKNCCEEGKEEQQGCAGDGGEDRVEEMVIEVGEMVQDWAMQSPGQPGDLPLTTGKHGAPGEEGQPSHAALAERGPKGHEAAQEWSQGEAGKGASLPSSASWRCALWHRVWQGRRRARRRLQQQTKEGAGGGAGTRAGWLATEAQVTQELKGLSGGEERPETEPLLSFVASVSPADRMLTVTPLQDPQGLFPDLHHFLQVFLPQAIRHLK
As to the kind of experiment: co-IP; anti-FLAG IP from lysates of HEK 293 cells with transiently expressed FLAG-Star-PAP forms, blots for associated endogenous proteins; buffer A (100 mM KCl, 5 mM EDTA, 5% NP-40, RNase A); also after tBHQ or DMSO treatment, control siRNA.

The target in test [4] is T4, FLAG-Star-PAP^S6A (human) (UniProt Q9H6E5).
T4 sequence: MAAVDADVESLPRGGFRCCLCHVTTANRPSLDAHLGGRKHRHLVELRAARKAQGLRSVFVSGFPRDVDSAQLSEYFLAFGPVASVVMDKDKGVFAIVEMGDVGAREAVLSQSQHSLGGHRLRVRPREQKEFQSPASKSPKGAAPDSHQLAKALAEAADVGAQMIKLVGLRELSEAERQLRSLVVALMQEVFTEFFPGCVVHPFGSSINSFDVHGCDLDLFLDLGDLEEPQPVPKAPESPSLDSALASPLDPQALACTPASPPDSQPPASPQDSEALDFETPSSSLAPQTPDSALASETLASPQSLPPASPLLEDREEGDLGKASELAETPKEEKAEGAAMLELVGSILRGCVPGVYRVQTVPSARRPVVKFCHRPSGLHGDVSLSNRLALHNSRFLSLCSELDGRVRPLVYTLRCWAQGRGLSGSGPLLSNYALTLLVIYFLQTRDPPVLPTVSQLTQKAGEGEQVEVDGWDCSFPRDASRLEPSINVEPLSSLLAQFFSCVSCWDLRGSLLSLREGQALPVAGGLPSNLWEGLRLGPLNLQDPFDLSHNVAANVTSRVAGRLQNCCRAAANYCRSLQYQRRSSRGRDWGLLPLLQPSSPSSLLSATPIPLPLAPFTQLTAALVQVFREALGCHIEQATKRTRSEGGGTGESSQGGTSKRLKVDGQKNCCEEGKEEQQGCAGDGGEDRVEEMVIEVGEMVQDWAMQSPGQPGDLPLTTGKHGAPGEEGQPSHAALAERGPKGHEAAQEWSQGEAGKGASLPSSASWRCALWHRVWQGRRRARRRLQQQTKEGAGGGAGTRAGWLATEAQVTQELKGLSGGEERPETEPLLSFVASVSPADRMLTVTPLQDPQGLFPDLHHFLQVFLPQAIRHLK
The description is as above.

The target of test [5] is T5, FLAG-Star-PAP^WT (human) (UniProt Q9H6E5).
T5 sequence: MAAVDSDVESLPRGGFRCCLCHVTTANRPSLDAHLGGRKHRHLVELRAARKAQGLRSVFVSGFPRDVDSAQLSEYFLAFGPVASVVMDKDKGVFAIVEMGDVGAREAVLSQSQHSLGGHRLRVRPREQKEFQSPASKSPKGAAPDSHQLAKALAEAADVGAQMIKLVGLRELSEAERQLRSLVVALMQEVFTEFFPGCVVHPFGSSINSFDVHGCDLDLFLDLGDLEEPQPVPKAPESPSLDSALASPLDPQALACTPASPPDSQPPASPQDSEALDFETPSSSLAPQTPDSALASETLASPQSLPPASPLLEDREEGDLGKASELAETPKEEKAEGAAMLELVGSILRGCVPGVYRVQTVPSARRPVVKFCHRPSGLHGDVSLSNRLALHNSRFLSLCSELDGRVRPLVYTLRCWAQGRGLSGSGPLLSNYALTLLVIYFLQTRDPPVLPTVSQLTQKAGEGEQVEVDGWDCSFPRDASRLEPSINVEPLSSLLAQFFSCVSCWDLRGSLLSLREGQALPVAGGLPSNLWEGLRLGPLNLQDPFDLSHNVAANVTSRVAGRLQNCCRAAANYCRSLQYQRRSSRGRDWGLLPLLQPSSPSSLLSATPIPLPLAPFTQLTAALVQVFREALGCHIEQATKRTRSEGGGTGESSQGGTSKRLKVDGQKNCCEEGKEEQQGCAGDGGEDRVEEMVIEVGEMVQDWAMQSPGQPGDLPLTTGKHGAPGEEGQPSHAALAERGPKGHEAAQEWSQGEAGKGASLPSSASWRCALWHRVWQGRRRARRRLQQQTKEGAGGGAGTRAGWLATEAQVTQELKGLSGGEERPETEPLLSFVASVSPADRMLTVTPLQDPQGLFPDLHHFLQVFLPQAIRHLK
The description is as above.

These are yes or no findings as the source states them, for the method shown. In cells and extracts the contact can be indirect. Some binding calls cover weakened binding; strength is not graded here. Where a sequence is shown, tags or fusion partners need not be part of it.

“His-PIPKIα (from UniProt Q99755 1-562) (enzyme)”: the binding result in test [1] is listed as “no binding”; in test [2], “binds”.

B1: CPSF 160 (protein, UniProt Q10570 1-1443)
chain: MYAVYKQAHPPTGLEFSMYCNFFNNSERNLVVAGTSQLYVYRLNRDAEALTKNDRSTEGKAHREKLELAASFSFFGNVMSMASVQLAGAKRDALLLSFKDAKLSVVEYDPGTHDLKTLSLHYFEEPELRDGFVQNVHTPRVRVDPDGRCAAMLVYGTRLVVLPFRRESLAEEHEGLVGEGQRSSFLPSYIIDVRALDEKLLNIIDLQFLHGYYEPTLLILFEPNQTWPGRVAVRQDTCSIVAISLNITQKVHPVIWSLTSLPFDCTQALAVPKPIGGVVVFAVNSLLYLNQSVPPYGVALNSLTTGTTAFPLRTQEGVRITLDCAQATFISYDKMVISLKGGEIYVLTLITDGMRSVRAFHFDKAAASVLTTSMVTMEPGYLFLGSRLGNSLLLKYTEKLQEPPASAVREAADKEEPPSKKKRVDATAGWSAAGKSVPQDEVDEIEVYGSEAQSGTQLATYSFEVCDSILNIGPCANAAVGEPAFLSEEFQNSPEPDLEIVVCSGHGKNGALSVLQKSIRPQVVTTFELPGCYDMWTVIAPVRKEEEDNPKGEGTEQEPSTTPEADDDGRRHGFLILSREDSTMILQTGQEIMELDTSGFATQGPTVFAGNIGDNRYIVQVSPLGIRLLEGVNQLHFIPVDLGAPIVQCAVADPYVVIMSAEGHVTMFLLKSDSYGGRHHRLALHKPPLHHQSKVITLCLYRDLSGMFTTESRLGGARDELGGRSGPEAEGLGSETSPTVDDEEEMLYGDSGSLFSPSKEEARRSSQPPADRDPAPFRAEPTHWCLLVRENGTMEIYQLPDWRLVFLVKNFPVGQRVLVDSSFGQPTTQGEARREEATRQGELPLVKEVLLVALGSRQSRPYLLVHVDQELLIYEAFPHDSQLGQGNLKVRFKKVPHNINFREKKPKPSKKKAEGGGAEEGAGARGRVARFRYFEDIYGYSGVFICGPSPHWLLVTGRGALRLHPMAIDGPVDSFAPFHNVNCPRGFLYFNRQGELRISVLPAYLSYDAPWPVRKIPLRCTAHYVAYHVESKVYAVATSTNTPCARIPRMTGEEKEFETIERDERYIHPQQEAFSIQLISPVSWEAIPNARIELQEWEHVTCMKTVSLRSEETVSGLKGYVAAGTCLMQGEEVTCRGRILIMDVIEVVPEPGQPLTKNKFKVLYEKEQKGPVTALCHCNGHLVSAIGQKIFLWSLRASELTGMAFIDTQLYIHQMISVKNFILAADVMKSISLLRYQEESKTLSLVSRDAKPLEVYSVDFMVDNAQLGFLVSDRDRNLMVYMYLPEAKESFGGMRLLRRADFHVGAHVNTFWRTPCRGATEGLSKKSVVWENKHITWFATLDGGIGLLLPMQEKTYRRLLMLQNALTTMLPHHAGLNPRAFRMLHVDRRTLQNAVRNVLDGELLNRYLYLSTMERSELAKKIGTTPDIILDDLLETDRVTAHF
As to B1, the binding result in test [3], in test [4] and in test [5] was “binds” throughout.

The values are drawn from article PMC4538844.
